In PubChem BioAssay AID2100 (National Center for Advancing Translational Sciences (NCATS), 2009):
Out of some 300,000 compounds screened, about 1,200 (0.4%) were called active. Inconclusive means that the source gave no clear call. Such entries were picked first, then a sample of the others. Calls come from the whole dose curve; as a rule, active = well fitted inhibition curve with a large enough effect; inconclusive = small, poorly fitted or top-dose-only effect, or another doubt; inactive = no such curve, though single readings can be large or run the other way. A potency beside an inconclusive call is a rough fit, not a confirmed value.

target: Lysosomal alpha-glucosidase (Homo sapiens) (UniProt P10253); assay: qHTS Assay for Inhibitors and Activators of Human alpha-Glucosidase Cleavage of Glycogen; conditions: recombinant GAA, glycogen substrate, Amplex Red glucose oxidase fluorescence; series mostly up to 76.4 µM
How it was run: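 Natural-substrate format: glycogen cleavage by 4 nM human enzyme, glucose read by Amplex Red coupling (Ex 573, Em 610 nm). Normalized to enzyme and no-enzyme controls.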
Potency is the fitted concentration of half-maximal effect.

How did the Potency turn out when `O=C(Nc1ccc(COc2ccccc2)cc1)Oc1ccccc1N1CCOCC1` was run?
The Potency was active: 3.98 µM.

Which Potency does the source give for `CC(=O)O[C@@]12CO[C@@H]1C[C@@H](O)[C@@]1(C)C(=O)[C@H](O)C3=C(C)[C@@H](OC(=O)[C@H](O)[C@@H](NC(=O)c4ccccc4)c4ccccc4)C[C@@](O)([C@@H](OC(=O)c4ccccc4)C12)C3(C)C` (stereo partly drawn) here?
The Potency was “inactive”.

How did the Potency turn out when `COC(=O)C1=C(C)N(C)C(=O)NC1c1cc(Cl)c(O)c(OC)c1` (stereo not drawn) was run?
Its Potency is inconclusive: 19.8 µM [inhibitor, partial curve].

Which Potency does the source give for `COc1ccc(CCNCc2ccc(SC)cc2)cc1` here?
Its Potency is inconclusive: 1.4 µM [inhibitor, full curve, poor fit].

For `COc1ccc(OC)c(NC2=NCCS2)c1`, which Potency is on record?
The Potency was inconclusive: 25.1 µM [inhibitor, partial curve].

For `O=c1[nH]c(=O)n(Cc2ccc(F)cc2)c(O)c1/C=N/Nc1ccccc1`, which Potency is on record?
Its Potency is inconclusive: 17.8 µM [inhibitor, partial curve].

Which Potency does the source give for `O=C1CCCN1C(=O)c1cncc(Br)c1` here?
Its Potency is “inactive”.

With `Cc1ccc(-c2cn3c(=S)[nH]nc3s2)cc1` as the compound, how does the Potency read?
Its Potency is inconclusive: 14 µM [inhibitor, partial curve].

Which Potency does the source give for `CN1CCc2nc(SCc3ccccc3Br)c(C#N)cc2C1` here?
Its Potency is inconclusive: 15.8 µM [activator, partial curve].

How did the Potency turn out when `Cc1[nH]c2ccc(OC(F)(F)F)cc2c1CCNCc1cccc([N+](=O)[O-])c1` was run?
Its Potency is “inactive”.

With `Cc1cccc(N2C(=O)NC(=O)/C(=C/c3cc4c(cc3[N+](=O)[O-])OCO4)C2=O)c1` as the compound, how does the Potency read?
Its Potency is inconclusive: 35.5 µM [inhibitor, partial curve].

Which Potency does the source give for `COc1ccc(NCC(=O)N2CCCC2)cc1Cl` here?
Its Potency is inconclusive: 31.6 µM [activator, single point].

How did the Potency turn out when `O=C1CC(N2CC=C(c3ccc(F)cc3)CC2)C(=O)N1c1ccc(F)cc1` (stereo not drawn) was run?
The Potency was inconclusive: 35.5 µM [activator, single point].

With `CSC1=NC(C)(C)CC2(C)Nc3ccccc3N12` (stereo not drawn) as the compound, how does the Potency read?
Its Potency is inconclusive: 3.95 µM [inhibitor, single point].

`CCOc1cc(/C=C2/NC(=O)N(CC(=O)Nc3cccc(C)c3)C2=O)ccc1O` was tested. Which Potency did it give?
Its Potency is active: 22.4 µM.

`Fc1ccc(N2CCN(Cc3ccc4c(c3)OCO4)CC2)cc1` was tested. Which Potency did it give?
The Potency was “inactive”.

Which Potency does the source give for `[O-][n+]1onc2c1CCC1N(O)CCC21O` (stereo not drawn) here?
The Potency was inconclusive: 11.1 µM [inhibitor, partial curve].

`COC(=O)C(O)(c1c(C)[nH]n(-c2ccccc2)c1=O)C(F)(F)F` (stereo not drawn) was tested. Which Potency did it give?
Its Potency is inconclusive: 28.2 µM [inhibitor, partial curve].

How did the Potency turn out when `Cc1c(NC(NC(=O)CF)C(Cl)(Cl)Cl)c(=O)n(-c2ccccc2)n1C` (stereo not drawn) was run?
Its Potency is inconclusive: 8.91 µM [inhibitor, partial curve].

How did the Potency turn out when `COc1cc(C2Nc3c(C)cc(C)cc3-c3cc(C)nn32)cc(OC)c1O` (stereo not drawn) was run?
Its Potency is inconclusive: 14.1 µM [inhibitor, partial curve].

With `CN1C(=O)C(Cc2ccc3c(c2)OCO3)C(=O)N(C)C1=O` as the compound, how does the Potency read?
Its Potency is active: 39.8 µM.

With `CN1CCN(c2ccc(NC(=O)Oc3ccccc3)cc2)CC1` as the compound, how does the Potency read?
The Potency was inconclusive: 11.2 µM [inhibitor, full curve, poor fit].

With `Cc1ccc(S(=O)(=O)Nc2cc(C(=O)N3CCC4(CC3)OCCO4)ccc2N2CCCCC2)cc1` as the compound, how does the Potency read?
Its Potency is inconclusive: 14.1 µM [inhibitor, partial curve].

How did the Potency turn out when `C/C(=N\NC(=S)Nc1ccccc1)c1c(O)n(C)c(=O)n(C)c1=O` was run?
Its Potency is inconclusive: 31.6 µM [inhibitor, partial curve].

`O=C(O)C1Sc2[nH]c(=O)sc2C2c3cc(Cl)ccc3OC(=O)C12` (stereo not drawn) was tested. Which Potency did it give?
The Potency was active: 15.8 µM.

With `CN1CCN(c2ccc(N)cc2)CC1` as the compound, how does the Potency read?
Its Potency is inconclusive: 7.94 µM [inhibitor, full curve, poor fit].

For `COC(=O)Cn1cc(/C=C2\C(=O)NC(=O)N(c3ccc(OC)cc3)C2=O)c2ccccc21`, which Potency is on record?
The Potency was “inactive”.

How did the Potency turn out when `COCc1cc(C)c(C#N)c(=S)[nH]1` was run?
The Potency was inconclusive: 31.4 µM [inhibitor, single point].

With `Cc1ccc2c(c1)N(CCC(=O)N1CCC3(CC1)OCCO3)C(=O)CO2` as the compound, how does the Potency read?
The Potency was inconclusive: 22.4 µM [inhibitor, single point].

How did the Potency turn out when `O=C1C(=O)c2cccc3cccc1c23` was run?
The Potency was “inactive”.

`CCCCc1ccc(NC(=O)c2ccc3c(c2)CCN3S(=O)(=O)CC)cc1` was tested. Which Potency did it give?
Its Potency is inconclusive: 7.94 µM [inhibitor, partial curve].

`COCCNc1oc(-c2ccc(OC)cc2)nc1C#N` was tested. Which Potency did it give?
The Potency was inconclusive: 17.8 µM [inhibitor, partial curve].

Which Potency does the source give for `CCN(CC)c1ccc(C=C2C(=O)N(C)C(=S)N(C)C2=O)o1` here?
The Potency was “inactive”.

How did the Potency turn out when `CCOC(=O)c1cnc2c(ccc3ccccc32)c1Nc1ccc(N(C)C)cc1` was run?
Its Potency is inconclusive: 25.1 µM [inhibitor, partial curve].

For `CCCCCCn1c(O)c(/C=N/N2CCCCCC2)c(=O)[nH]c1=O`, which Potency is on record?
Its Potency is inconclusive: 2.8 µM [inhibitor, full curve].

With `COCCCn1c(N)c(C(=O)OCCOC)c2nc3ccccc3nc21` as the compound, how does the Potency read?
The Potency was “inactive”.

For `O=C1CC(=O)N(Cc2ccccc2)C(=S)N1`, which Potency is on record?
The Potency was “inactive”.

With `CC12CCCCC1N(O)CN2O` (stereo not drawn) as the compound, how does the Potency read?
The Potency was active: 17.8 µM.

How did the Potency turn out when `CN1C(=O)C(Cc2cccc3ccccc23)C(=O)N(C)C1=O` was run?
Its Potency is inconclusive: 35.5 µM [inhibitor, single point].

With `COc1ccc2c(c1)NP(=S)(Oc1ccccc1)N2` (stereo not drawn) as the compound, how does the Potency read?
The Potency was inconclusive: 3.16 µM [inhibitor, partial curve].

Which Potency does the source give for `CC12CCCCC1=[N+]([O-])CN2O` (stereo not drawn) here?
Its Potency is inconclusive: 11.2 µM [inhibitor, partial curve].

With `CC(=O)Nc1ccc(N(C(=O)Cn2nnc3ccccc32)C(C(=O)NC2CCCC2)c2ccc(O)c(O)c2)cc1` (stereo not drawn) as the compound, how does the Potency read?
The Potency was inconclusive: 39.5 µM [inhibitor, single point].

`Cc1cc(/C=C2\C(=O)NC(=O)N(c3cccc(F)c3)C2=O)c(C)n1-c1cc(C(=O)O)cc(C(=O)O)c1` was tested. Which Potency did it give?
Its Potency is “inactive”.

How did the Potency turn out when `CC(=NCC1CCCO1)c1c(O)n(Cc2ccccc2)c(=O)[nH]c1=O` (stereo not drawn) was run?
The Potency was inconclusive: 10 µM [inhibitor, full curve, poor fit].

With `COc1ccc(C2CC(c3c(O)n(CCc4ccccc4)c(=O)[nH]c3=O)=NN2)cc1OC` (stereo not drawn) as the compound, how does the Potency read?
The Potency was inconclusive: 31.6 µM [inhibitor, single point].

How did the Potency turn out when `O=C(NC(Cc1cnc[nH]1)C(=O)O)c1ccccc1` (stereo not drawn) was run?
The Potency was inconclusive: 56.2 µM [activator, partial curve, poor fit].

For `C[C@]12CC[C@@H]3c4cc(O)c(O)cc4CC[C@H]3[C@@H]1CC[C@@H]2O`, which Potency is on record?
Its Potency is active: 3.14 µM.

Which Potency does the source give for `Oc1cc2c(cc1CN1CCN(c3ccccc3)CC1)OCO2` here?
The Potency was active: 2 µM.

Which Potency does the source give for `Cc1cccc(-n2c(O)c(/C=N/Nc3nc4c(c(=O)n(C)c(=O)n4C)n3C)c(=O)[nH]c2=S)c1` here?
Its Potency is inconclusive: 20 µM [inhibitor, partial curve].

How did the Potency turn out when `Cn1c(O)c(/C=N/N2CCCCC2)c(=O)[nH]c1=O` was run?
Its Potency is inconclusive: 8.91 µM [inhibitor, full curve, poor fit].

`[O-]C1=N/[N+](=C/c2ccc(Cl)cc2)CC1` was tested. Which Potency did it give?
Its Potency is inconclusive: 28.2 µM [inhibitor, single point].

Which Potency does the source give for `COc1cc2c(cc1O)CC1c3c(cc(O)c(OC)c3-2)CCN1C` (stereo not drawn) here?
The Potency was inconclusive: 35.5 µM [inhibitor, partial curve].

For `Cc1ccc(-n2c(-c3nn(C)c(C)c3Cl)n[nH]c2=S)cc1`, which Potency is on record?
The Potency was inconclusive: 35.5 µM [inhibitor, partial curve].

Which Potency does the source give for `N#CC1=C(N)Oc2n[nH]c(-c3cccs3)c2C1c1ccco1` (stereo not drawn) here?
Its Potency is inconclusive: 28 µM [inhibitor, single point].

How did the Potency turn out when `CC(=O)c1ccc2c(c1)C1C(Cl)C(Sc3ccccc3[N+](=O)[O-])CC1C(c1ccccc1[N+](=O)[O-])N2` (stereo not drawn) was run?
The Potency was inconclusive: 31.6 µM [inhibitor, partial curve].

With `COc1cccc(-n2c(/C=C/c3ccc(O)c(O)c3)nc3ccccc3c2=O)c1` as the compound, how does the Potency read?
Its Potency is inconclusive: 6.26 µM [inhibitor, full curve].

With `CC(C)OCCCNC(=O)c1c(N)n(Cc2cccs2)c2nc3ccccc3nc12` as the compound, how does the Potency read?
The Potency was “inactive”.

`CC(=NCCc1ccccc1)c1c(O)[nH]c(=O)[nH]c1=O` was tested. Which Potency did it give?
Its Potency is “inactive”.

Which Potency does the source give for `Cc1ccc2[nH]c3c(c2c1)CN(C(=O)CN1CCSCC1)CC3` here?
Its Potency is inconclusive: 3.14 µM [inhibitor, partial curve].

With `NNc1n[nH]c(=S)n1N` as the compound, how does the Potency read?
The Potency was inconclusive: 8.91 µM [inhibitor, partial curve].

How did the Potency turn out when `CCN(CC)C(=O)c1c(C)[nH]c(=S)c(C#N)c1-c1ccco1` was run?
Its Potency is inconclusive: 28 µM [inhibitor, single point].

With `CC(C)Cn1cc(C(=O)N2CCC3(CC2)OCCO3)c2c3ccccc3n(C)c2c1=O` as the compound, how does the Potency read?
The Potency was inconclusive: 3.16 µM [inhibitor, partial curve].

How did the Potency turn out when `O=C(OCC1O[C@@H](OC(=O)c2cc(O)c(O)c(O)c2)[C@@H](OC(=O)c2cc(O)c(O)c(O)c2)[C@@H](OC(=O)c2cc(O)c(O)c(O)c2)[C@@H]1OC(=O)c1cc(O)c(O)c(O)c1)c1cc(O)c(O)c(O)c1` (stereo partly drawn) was run?
The Potency was inconclusive: 3.16 µM [inhibitor, full curve].

`O=c1cc(-c2ccc(O)c(O)c2)oc2cc(O)cc(O)c12` was tested. Which Potency did it give?
Its Potency is active: 25.1 µM.

With `CCOc1cc(-c2nc3c(C)cccn3c2NCC2CCCO2)ccc1O` (stereo not drawn) as the compound, how does the Potency read?
Its Potency is active: 35.5 µM.

Which Potency does the source give for `O=C1NC(=O)C(=Cc2coc3ccc(O)cc3c2=O)C(=O)N1` here?
The Potency was inconclusive: 8.91 µM [inhibitor, partial curve].

How did the Potency turn out when `O=C(NC1(C(F)(F)F)Oc2ccccc2O1)N1CCC2(CC1)OCCO2` was run?
Its Potency is active: 5.62 µM.

`CCOC(=O)c1c(C)n(Cc2ccccc2)c2ccc(O)cc12` was tested. Which Potency did it give?
Its Potency is inconclusive: 22.4 µM [inhibitor, single point].
